Measurements from paper PMC6919601, “Identification of Plasmodium dipeptidyl aminopeptidase allosteric inhibitors by high throughput screening” (PLoS ONE, 2019).
Values joined by “and” are separate entries in the source; they are usually repeats but may differ in a detail not shown here. Equal values may be shown once. In all, about 110,000 compounds went through this assay and about 230 (0.21%) showed an effect of 50% or more. The list shows a part of the results.

Molecular target: DPAP1 (Plasmodium falciparum, UniProt Q8IIJ9)
Experiment: primary screen, percent inhibition; read by cleavage of a fluorogenic dipeptide substrate; higher = more effect of the substance
Parameters: species or system P. falciparum D10 trophozoite lysates; single well
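Also: 30 min substrate incubation versus DMSO and 10 µM JCP410 controls.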

Chain of DPAP1 (Q8IIJ9 whole entry, looked up): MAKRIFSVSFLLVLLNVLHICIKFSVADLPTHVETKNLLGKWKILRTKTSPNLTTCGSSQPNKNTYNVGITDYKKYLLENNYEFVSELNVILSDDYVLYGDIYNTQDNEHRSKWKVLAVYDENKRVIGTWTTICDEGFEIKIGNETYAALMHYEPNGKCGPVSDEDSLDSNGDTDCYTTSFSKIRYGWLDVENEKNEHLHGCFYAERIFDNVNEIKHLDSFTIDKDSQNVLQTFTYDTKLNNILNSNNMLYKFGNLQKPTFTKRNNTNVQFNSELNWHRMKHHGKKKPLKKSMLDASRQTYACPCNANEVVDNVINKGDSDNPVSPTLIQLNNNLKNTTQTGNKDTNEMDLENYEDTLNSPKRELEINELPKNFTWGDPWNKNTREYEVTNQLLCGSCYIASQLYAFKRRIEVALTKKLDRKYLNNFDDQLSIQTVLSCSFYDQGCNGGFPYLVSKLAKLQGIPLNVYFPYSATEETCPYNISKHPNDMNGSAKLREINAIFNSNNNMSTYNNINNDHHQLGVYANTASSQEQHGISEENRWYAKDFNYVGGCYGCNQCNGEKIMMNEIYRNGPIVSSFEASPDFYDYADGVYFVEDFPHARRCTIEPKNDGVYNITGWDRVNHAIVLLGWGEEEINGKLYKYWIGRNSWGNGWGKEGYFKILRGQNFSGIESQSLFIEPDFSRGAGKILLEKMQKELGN

Row | Compound | % Inhibition @ 10 uM
1 | O=C(O)/C=C/C(=O)NCCN1CCOCC1 | 1.42%
2 | COc1cc(C(=O)Nc2ccc(S(=O)(=O)Nc3cc(C)on3)cc2)cc(OC)c1OC | 0.408%
3 | Cc1cc(Br)ccc1C(=O)N[C@@H](CC(C)C)C(=O)NCC#N | -1.41%
4 | O=C(Nc1ccc2c(c1)OCO2)c1ccc(Cl)cc1Cl | -5.32%
5 | Cc1cccn2c(=O)c(/C=C(\C#N)C(=O)NC3CCCC3)c(Oc3ccc(Br)cc3)nc12 | 0.315%
6 | COc1ccccc1/C=C(\C#N)C(N)=O | -3.03%
7 | CCN1CCN(Cc2ccc(F)cc2F)CC1 | 0.847%
8 | CC(C)CCNC(=O)c1cc(S(=O)(=O)N2CCOCC2)cn1C | -5.01%
9 | Cc1ccc(-n2nc3c(c2NC(=O)CC(C)C)CS(=O)(=O)C3)c(C)c1 | 15.7%
10 | CC1CCN(c2ccc3nnc(CCC(=O)N4CCOCC4)n3n2)CC1 | -5.85%
11 | CCOc1ccc(C(=O)N2N=C(C)CC2(O)C(F)F)cc1 (stereo not drawn) | -3.45%
12 | COc1ccccc1CCNCc1ccccc1OC | -2.89% and -3.37%
13 | CS(=O)(=O)N(CC(=O)N1CCOCC1)c1ccc(C23C[C@H]4C[C@@H](C2)C[C@@H](C3)C4)cc1 | -0.872%
14 | CC(C)(C)NS(=O)(=O)c1cc(Cl)ccc1OCC(=O)N1CCOCC1 | 1.84%
15 | CN1CCN(C(=O)c2ccccc2C(=O)O)CC1 | 0.583%
16 | COc1ccc(OC)c(S(=O)(=O)CC(=O)c2cc3ccccc3oc2=O)c1 | 9.23%
17 | CC(=O)Nc1ccc(S(=O)(=O)NCc2ccccc2)cc1 | 3.29%
18 | O=S(=O)(NCC1CCCO1)c1ccc(-c2ccc(Cl)cc2)cc1 (stereo not drawn) | -3.04%
19 | CC(O)C#CCN(Cc1ccccc1)C(C)C (stereo not drawn) | 1.43%
20 | O=C1c2ccccc2C(=O)N1CCSC(=S)N1CCCCCC1 | -3.72%
21 | CCc1cc2c(=O)n(CC(=O)NCc3ccccc3)cnc2s1 | -0.478%
22 | CCOC(=O)C1CCN(c2ccc(-c3ccccc3)nn2)CC1 | 3.76%
23 | Clc1ccc(-c2csc3ncnc(NCc4ccco4)c23)cc1 | 0.408%
24 | C=CCn1c(SCc2ccc(Cl)cc2)nc(=O)c(CC)c1O | -0.833%
25 | Cc1ccc(S(=O)(=O)NC(=O)NCCc2ccc(S(N)(=O)=O)cc2)cc1 | -1.92%

Row | Compound | % Inhibition @ 10 uM
26 | O=C(c1ccccc1)c1ccc(N2C(=O)c3ccccc3C2=O)cc1 | -2.85%
27 | COCCN1CC(C(=O)O)CC1=O (stereo not drawn) | -0.186%
28 | CCOc1cc(-c2c(C#N)c(N)nc3c2CCCC3)ccc1O | -0.171%
29 | FC(F)(F)c1ccccc1CN1CCN(Cc2ccc3c(c2)OCO3)CC1 | -3.72%
30 | COc1cccc(C(Nc2ccccn2)c2oc(CO)cc(=O)c2O)c1 (stereo not drawn) | 0.0289%
31 | N#CC1=C(N)Oc2[nH]nc(-c3ccccc3)c2C12C(=O)Nc1ccc(F)cc12 (stereo not drawn) | -2.68%
32 | CC1CCN(S(=O)(=O)c2ccc3c(ccn3CCC(=O)N3CCCCC3)c2)CC1 | 1.24%
33 | CN1C(=O)C(=Cc2ccc(SC3CCCCC3)o2)C(=O)N(C)C1=O | 0.458%
34 | Cc1cccc(C)c1N1C(=O)C2CC=CCC2C1=O (stereo not drawn) | -5.13%
35 | COc1ccc(C(O)C(C)NC(C)C(O)c2ccc(OC)cc2)cc1 (stereo not drawn) | 2.76%
36 | CCn1c(CN2CCN(C(=O)c3ccco3)CC2)nc2c1c(=O)n(C)c(=O)n2C | -0.499%
37 | COc1ccc(Cl)cc1N(CC(=O)Nc1ccc2c(c1)OCO2)S(=O)(=O)c1ccccc1 | -2.44%
38 | Cc1cc(C)c(C)c(OCCCN2CCOCC2)c1 | -5.84%
39 | CN1CCN(CCCNC(=O)c2ccc(CS(=O)(=O)c3ccc(Br)cc3)o2)CC1 | 0.458%
40 | COc1cc(C(=O)Nc2cccc(O)c2)cc(OC)c1OC | -6.82%
41 | Cc1noc(/C=C/c2cccs2)c1S(=O)(=O)N1CCC(C(=O)NC2CCCCC2)CC1 | -3.09%
42 | CC1=C(C(=O)Nc2ccccc2)C(c2ccc(C)o2)n2c(s/c(=C/c3ccco3)c2=O)=N1 (stereo not drawn) | 3.05%
43 | CCC(C)NC(=O)c1ccccc1NC(=O)CN(c1cc(Cl)ccc1C)S(C)(=O)=O (stereo not drawn) | -11.2%
44 | CC(CNC(=O)C1CCN(c2nnc(N3CCCC3=O)s2)CC1)c1ccccc1 (stereo not drawn) | 0.623%
45 | Cn1c(Nc2cccc(Cl)c2)cc(=O)n(C)c1=O | -6.83%
46 | CC1CCCCN1C(=O)c1cccc2c1SCCC2=O (stereo not drawn) | -7.32%
47 | CCn1c(C(=O)N2CCC(C(=O)NC(C)C34CC5CC(CC(C5)C3)C4)CC2)cc2sccc21 (stereo not drawn) | 0.137%
48 | COc1ccc(CC(=O)Nc2cccc3c(NC(=O)Cc4ccc(OC)cc4)cccc23)cc1 | 2.27%
49 | CC1Cn2c(C(=O)N3CCc4ccccc4C3)cc3c(Cl)ccc(c32)O1 (stereo not drawn) | 4.83%
50 | COc1ccc(/C=C2\CCCC3=C2OC(N)=C(C#N)C3c2ccc(OC)cc2)cc1 (stereo not drawn) | -0.988%

Row | Compound | % Inhibition @ 10 uM
51 | Cc1nc2ccccn2c1C(=O)NC1CCCCC1 | 3.01%
52 | Cc1ccc(C(C#N)NC(=O)[C@H](CC(C)C)NC(=O)c2ccc(OC(F)(F)F)cc2)o1 (stereo partly drawn) | -1.41%
53 | CC1=CC(C(F)(F)F)(C(F)(F)F)C(C#N)=C(N)N1c1ccc(C(N)=O)cc1 | 1.02%
54 | CCn1c(COc2ccccc2C(N)=O)nc2ccccc21 | -5.4%
55 | CCCN1CCC(N(C)CC(O)c2ccccc2)CC1 (stereo not drawn) | -3.15%
56 | Cc1c(C(=O)Nc2ccc(F)cc2)cccc1[N+](=O)[O-] | 4.03%
57 | COc1cccc(/C(O)=C/c2nc3ccc(C(=O)N4CCOCC4)cc3nc2O)c1 | -19.9%
58 | Cc1ccc(S(=O)(=O)NCC(=O)N(C)Cc2ccccc2)cc1 | 5.99%
59 | CCN1CCN(CCNC(=O)CSCc2nc(-c3ccc(OC)c(OC)c3)oc2C)CC1 | 2.37%
60 | CC(C)CNC1CC(=O)N(c2ccc(C(C)C)cc2)C1=O (stereo not drawn) | 4.75%
61 | O=C(COc1ccc([N+](=O)[O-])cc1)N1CCCCC1 | 11.4%
62 | O=C(Nc1nc2ccc(F)cc2s1)c1cccnc1 | -4.49%
63 | CCOC(=O)c1cc(-c2ccccc2)n(-c2cccc(C(=O)N3CCCC3)c2)c1C | 1.2%
64 | O=C(Cn1c2ccccc2c2cnnc(O)c21)NCCCc1ccccc1 | -0.281%
65 | O=C(Nc1cnc2ccccc2c1)c1cccc(C(=O)Nc2cnc3ccccc3c2)c1 | 5.32%
66 | C=CCn1c(SCC(=O)Nc2ncc(Cc3ccc(Cl)cc3)s2)nnc1-c1ccncc1 | 1.03%
67 | Cc1ccc2onc(CNC(=O)NCCc3ccsc3)c2c1 | -5.85%
68 | O=C(O)c1ccccc1C(=O)NCCc1ccccc1 | -1.97%
69 | CC1CCc2c(C(=O)NCCCN(Cc3ccccc3)C(C)C)csc2C1 (stereo not drawn) | -5.05%
70 | COc1ccc(N(CC(=O)NC2CC3CCC2C3)S(=O)(=O)c2ccc(C)cc2)cc1Cl (stereo not drawn) | 0.931%
71 | COc1ccc(OC)c(NC(=O)C2CCCCC2C(=O)O)c1 (stereo not drawn) | -7.46%
72 | N#Cc1c(NC(=O)C2CC=CCC2C(=O)O)sc2c1CCCCCC2 (stereo not drawn) | 2.69%
73 | O=C(Cn1cc(C(=O)C(F)(F)F)c2cc(Br)ccc21)NC1CCCC1 | 2.19%
74 | CC(=O)/C=C/c1oc2ccc([N+](=O)[O-])cc2c1-c1ccc(C)o1 | 7.61%
75 | CCOc1ccc(C2C(=O)N(C3CCCCC3)CC(=O)N2CC2CCCO2)cc1OC (stereo not drawn) | -2.14%

Row | Compound | % Inhibition @ 10 uM
76 | CC(C)Cn1cc(NC(=O)NCc2ccc3c(c2)OCO3)c2ccccc2c1=O | -3.45%
77 | O=C(NCc1ccc(F)cc1)c1ccc2c(Cl)c3c(nc2c1)CCC3 | -2.19%
78 | O=C(CCc1ccc(S(=O)(=O)NC2CCCCC2)cc1)Nc1ccccc1 | 6.92%
79 | COCCN1C(=O)C(O)=C(C(=O)c2ccccc2)C1c1ccccc1OC (stereo not drawn) | 3.04%
80 | CCC(CC)NCc1ccc(OC)c(C)c1OC | -8.36%
81 | Nc1ncnc(NCCc2ccccc2)n1 | -3.53%
82 | Cc1nn(CCCC(=O)N2CCN(C)CC2)c(=O)c2cc3sccc3n12 | -1.58%
83 | CC(C)OCCCNC(=O)c1cnn(-c2ccccc2)c1-n1cccc1 | 0.137%
84 | [O-]/[N+](=C\c1cc(Br)ccc1O)c1ccccc1 | -1.84%
85 | CCCn1c2ccccc2n2cc(-c3ccc(F)cc3)nc12 | 3.74%
86 | CCCCSC1=C(C#N)C(=O)NC(c2ccc(N(C)C)cc2)S1 (stereo not drawn) | 7.04%
87 | Cc1oc(-c2ccc(Cl)cc2)nc1CS(=O)CC(=O)NCCCN1CC(C)CC(C)C1 (stereo not drawn) | 2.37%
88 | COc1ccc(/C=N/N=C2/CC(C)(C)Cc3nnc(O)cc32)cc1 | -1.47%
89 | CCCOc1cccc(C(=O)N(Cc2ccccc2F)C2CCS(=O)(=O)C2)c1 (stereo not drawn) | 6.49%
90 | CNC(=O)C1CCN(c2nnc(C)c3c(C)n(-c4ccccc4)nc23)CC1 | 4.16%
91 | Cc1ccc(/C=C2\CCC(C3CCCC3)C2=O)o1 (stereo not drawn) | 4.79%
92 | O=C(NCc1ccco1)c1cccnc1-c1nc2ccccc2s1 | 9.92%
93 | COCCN(Cc1ccco1)C(=O)CSc1c2c(nc3cc(Cl)ccc13)CCCC2 | 1.62%
94 | CCOC(=O)c1cc(-c2ccc(OC)c(S(=O)(=O)N3CCC(Cc4ccccc4)CC3)c2)on1 | 1.09%
95 | COc1cccc(-n2nnnc2SCC(=O)Nc2sc3c(c2C#N)CCC(C(C)(C)C)C3)c1 (stereo not drawn) | -5.96%
96 | CC1=C(C(=O)Nc2ccc(C)cc2)C(c2ccc(Cl)cc2)NC(=O)N1 (stereo not drawn) | -5.92%
97 | Cc1ccc(-c2c(N(C)C3CCCC(C)C3C)c(=O)c2=O)cc1 (stereo not drawn) | 0.589%
98 | COc1cc(/C=C(\C#N)c2nc3ccccc3n2C)cc(Br)c1O | 31.8%
99 | Cc1ccccc1-c1noc(-c2nnn(-c3ccc(F)c(Cl)c3)c2N)n1 | -0.485%
